Reference: the antibiotic and cytotoxicity screens of Wong et al. (2023)
Some of the results follow.

Columns and labels:
HSkMC = human skeletal muscle cells; assay: cytotoxicity call (relative viability < 0.9); conditions: 10 µM
HepG2 = assay: cytotoxicity call (relative viability < 0.9); conditions: 10 µM
S. aureus RN4220 = assay: growth inhibition call (relative growth <= 0.2); conditions: 50 µM

SMILES | cytotoxicity call (HSkMC) | cytotoxicity call (HepG2) | growth inhibition call (S. aureus RN4220)
CNC[C@H]1Oc2ccc(NC(=O)Cn3cnnn3)cc2C(=O)N([C@H](C)CO)C[C@@H]1C | inactive | inactive | inactive
C[C@H](CO)N1C[C@H](C)[C@H](CN(C)C(=O)Nc2ccccc2)Oc2ccc(NC(=O)CCN3CCOCC3)cc2C1=O | inactive | inactive | inactive
C[C@H]1CN([C@@H](C)CO)S(=O)(=O)c2ccc(-c3cncnc3)cc2O[C@H]1CN(C)C(=O)c1ccc2c(c1)OCO2 | inactive | inactive | inactive
CCc1nc2ccc(C(=O)Nc3cccc(NS(C)(=O)=O)c3)cn2c1N(C)CCN1CCOCC1 | inactive | inactive | inactive
C[C@@H]1CN([C@@H](C)CO)C(=O)c2cc(NC(=O)Cc3ccccc3)ccc2O[C@H]1CN(C)Cc1ccc(Cl)c(Cl)c1 | inactive | inactive | inactive
C[C@H]1CN([C@@H](C)CO)S(=O)(=O)c2ccc(C#Cc3ccc(F)cc3)cc2O[C@@H]1CN(C)C(=O)c1ccccn1 | inactive | inactive | inactive
Cc1noc(C)c1NC(=O)Nc1ccc2c(c1)C(=O)N([C@@H](C)CO)C[C@H](C)[C@H](CN(C)Cc1ccc(C(=O)O)cc1)OCCCC[C@H](C)O2 | inactive | inactive | inactive
COc1ccc(NC(=O)Nc2ccc3c(c2)C(=O)N([C@H](C)CO)C[C@H](C)[C@H](CN(C)Cc2ccc(C(=O)Nc4ccccc4N)cc2)OCCCC[C@@H](C)O3)cc1 | inactive | inactive | inactive
C[C@H](CO)N1C[C@H](C)[C@@H](CN(C)Cc2ccc3c(c2)OCO3)OCCCC[C@H](C)Oc2ccc(NC(=O)C3CCCCC3)cc2C1=O | inactive | inactive | inactive
C[C@H](CO)N1C[C@H](C)[C@@H](CN(C)Cc2ccc(F)cc2)Oc2cc(C#CCN(C)C)ccc2S1(=O)=O | inactive | inactive | inactive
C[C@@H]1CN([C@@H](C)CO)S(=O)(=O)c2ccc(-c3cccnc3)cc2O[C@@H]1CN(C)C(=O)c1ccc2c(c1)OCO2 | inactive | inactive | inactive
CN1C(=O)c2cc(NC(=O)Nc3ccccc3F)ccc2OC[C@H]2O[C@H](CC(=O)NCc3ccc(-c4ccccc4)cc3)CC[C@H]21 | inactive | inactive | inactive
Cc1noc(C)c1NC(=O)N(C)C[C@H]1Oc2c(NC(=O)c3cnccn3)cccc2C(=O)N([C@@H](C)CO)C[C@H]1C | inactive | inactive | inactive
O=C(C[C@H]1CC=CCCC(=O)OCCNC1=O)NCCO | inactive | inactive | inactive
Cc1noc(C)c1NC(=O)Nc1ccc2c(c1)C(=O)N([C@H](C)CO)C[C@H](C)[C@H](CN(C)C(=O)Nc1c(C)noc1C)OCCCC[C@@H](C)O2 | inactive | inactive | inactive
C=CCOC(=O)[C@H]1[C@@H]2C(=O)O[C@@H](c3ccccc3)[C@@H](c3ccccc3)N2[C@@H](c2ccc(OCCOC(=O)[C@@H]3C[C@@H]4C(=O)N[C@@H](CCCC[N+](C)(C)C)C(=O)N4[C@@H]3c3ccc(O)cc3)cc2)[C@]12C(=O)Nc1ccccc12 | inactive | inactive | inactive
Cc1ccc(S(=O)(=O)Nc2ccc3c(c2)C(=O)N([C@H](C)CO)C[C@@H](C)[C@H](CN(C)Cc2ccncc2)OCCCC[C@@H](C)O3)cc1 | inactive | inactive | inactive
O=C(C[C@H]1C[C@H]2c3cc(NS(=O)(=O)c4ccc(F)cc4)ccc3O[C@H]2[C@H](CO)O1)NCCc1ccccc1 | inactive | inactive | inactive
Cc1noc(C)c1S(=O)(=O)Nc1ccc2c(c1)C(=O)N([C@H](C)CO)C[C@@H](C)[C@H](CN(C)C(=O)NC1CCCCC1)O2 | inactive | inactive | inactive
C[C@@H]1CN([C@H](C)CO)C(=O)c2cc(NC(=O)CCC(F)(F)F)ccc2O[C@@H](C)CCCCO[C@H]1CN(C)C(=O)Nc1ccc2c(c1)OCO2 | inactive | inactive | inactive
CN1C(=O)c2cc(NC(=O)c3cnccn3)ccc2OC[C@@H]2O[C@H](CC(=O)NCC3CCCCC3)CC[C@H]21 | inactive | inactive | inactive
COc1cccc(C(=O)Nc2ccc3c(c2)C(=O)N(C)[C@@H]2CC[C@H](CC(=O)NCC4CC4)O[C@@H]2CO3)c1 | inactive | active | inactive
C[C@H](CO)N1C[C@H](C)[C@H](CN(C)Cc2ccc(C(=O)O)cc2)Oc2ccc(NC(=O)CCCN(C)C)cc2C1=O | inactive | inactive | inactive
C[C@@H]1CCCCO[C@@H](CN(C)C(=O)c2ccncc2)[C@@H](C)CN([C@@H](C)CO)C(=O)c2cc(NS(=O)(=O)c3ccc(Cl)cc3)ccc2O1 | inactive | inactive | inactive
C[C@@H]1CN([C@H](C)CO)C(=O)c2cc(NC(=O)Nc3cccc4ccccc34)ccc2O[C@@H](C)CCCCO[C@@H]1CN(C)C(=O)c1ccccc1 | inactive | inactive | inactive
C=CC[C@@H](CC(=O)N[C@H](CO)Cc1ccccc1)C(=O)N[C@H](C)COC(=O)[C@H](CC=C)CC(=O)OC(C)(C)C | inactive | inactive | inactive
C[C@H](CO)N1C[C@H](C)[C@H](CN(C)C)Oc2cc(C#CCN(C)C)ccc2S1(=O)=O | inactive | inactive | inactive

SMILES | cytotoxicity call (HSkMC) | cytotoxicity call (HepG2) | growth inhibition call (S. aureus RN4220)
C[C@@H]1CN([C@H](C)CO)C(=O)c2cc(NC(=O)Nc3cccc4ccccc34)ccc2O[C@H]1CN(C)C(=O)Nc1ccccc1 | inactive | inactive | inactive
Cc1ccc(S(=O)(=O)N(C)C[C@@H]2OCCCC[C@H](C)Oc3ccc(NC(=O)Nc4ccccc4)cc3C(=O)N([C@@H](C)CO)C[C@H]2C)cc1 | inactive | inactive | inactive
CC(=O)N1[C@@H]2c3cccc(=O)n3C[C@@H]2[C@@H](CO)[C@@H]1C(=O)N1CCc2ccccc2C1 | inactive | inactive | inactive
COCC(=O)Nc1ccc2c(c1)OC[C@@H](C)N(C(=O)Cc1cccnc1)C[C@H](C)[C@@H](OC)CN(C)C2=O | inactive | inactive | inactive
C[C@@H]1CCCCO[C@H](CN(C)C(=O)CCCN(C)C)[C@@H](C)CN([C@@H](C)CO)C(=O)c2cc(NC(=O)Nc3ccc(C(F)(F)F)cc3)ccc2O1 | inactive | inactive | inactive
CC(C)NC(=O)Nc1ccc2c(c1)C(=O)N([C@@H](C)CO)C[C@H](C)[C@H](CN(C)C(=O)C1CCCCC1)OCCCC[C@@H](C)O2 | inactive | inactive | inactive
Cc1ccc(-c2c[nH]c(=S)[nH]2)cc1 | inactive | inactive | inactive
COc1ccc(CN(C)C[C@H]2OCCCC[C@H](C)Oc3ccc(NS(=O)(=O)c4c(C)noc4C)cc3C(=O)N([C@H](C)CO)C[C@H]2C)cc1 | inactive | inactive | inactive
O=C(CSc1nnc(-c2ccccc2)n1C1CCCCC1)Nc1ccc(S(=O)(=O)Nc2ccccn2)cc1 | inactive | inactive | inactive
O=C(C[C@@H]1C=C[C@H](NC(=O)c2ccncc2)[C@@H](CO)O1)NCc1ccncn1 | inactive | inactive | inactive
COc1ccc(S(=O)(=O)Nc2cccc3c2O[C@@H](CN(C)C(=O)NC(C)C)[C@@H](C)CN([C@H](C)CO)C3=O)cc1 | inactive | inactive | inactive
C[C@H]1CN([C@@H](C)CO)C(=O)c2ccccc2-c2ccccc2CO[C@@H]1CN(C)C(=O)Nc1cccc(Cl)c1Cl | inactive | inactive | inactive
C[C@H](O)C#Cc1cnc2c(c1)C(=O)N([C@H](C)CO)C[C@H](C)[C@H](CN(C)Cc1cncnc1)O2 | inactive | inactive | inactive
C[C@H](CO)N1C[C@H](C)[C@@H](CN(C)C(=O)Nc2ccc(F)cc2)OCCCC[C@H](C)Oc2ccc(NC(=O)CCCN(C)C)cc2C1=O | inactive | inactive | inactive
C[C@@H]1CN([C@@H](C)CO)C(=O)c2cc(NC(=O)Cn3cnnn3)ccc2O[C@H]1CN(C)S(=O)(=O)c1cn(C)cn1 | inactive | inactive | inactive
C[C@H](CO)N1C[C@H](C)[C@@H](CN(C)S(=O)(=O)c2ccccc2)Oc2ccc(NS(=O)(=O)c3cn(C)cn3)cc2CC1=O | inactive | inactive | inactive
COc1ccc(NC(=O)Nc2ccc3c(c2)C(=O)N([C@H](C)CO)C[C@@H](C)[C@H](CN(C)Cc2ccncc2)OCCCC[C@H](C)O3)cc1 | inactive | inactive | inactive
CCC(=O)N1CCN(c2ccc(-n3c(=O)ccc4cnc5ccc(-c6cnc7ccccc7c6)cc5c43)cc2C(F)(F)F)CC1 | active | active | inactive
CCOc1oc(C(=O)NC2CCCCC2)c(-c2ccc(Cl)cc2)c1S(=O)(=O)c1ccc(Cl)cc1 | inactive | inactive | inactive
O=C(c1cnc2ccccc2c1)C1CC1 | inactive | inactive | inactive
C[C@H]1CN([C@@H](C)CO)C(=O)Cc2cc(NS(=O)(=O)c3ccccc3)ccc2O[C@@H]1CN(C)Cc1ccc(C(=O)O)cc1 | inactive | inactive | inactive
C[C@H]1CN([C@@H](C)CO)C(=O)Cc2cc(NS(=O)(=O)c3ccc(F)cc3)ccc2O[C@@H]1CN(C)CC1CC1 | inactive | inactive | inactive
NC[C@H]1CC[C@H](C(=O)O)CC1 | inactive | inactive | inactive
Cn1cnc(S(=O)(=O)N2C[C@H](O)COC[C@H]3O[C@@H](CC(=O)NC4CCCC4)CC[C@@H]32)c1 | inactive | inactive | inactive
COc1ccc(CN(C)C[C@@H]2OCCCC[C@H](C)Oc3ccc(NS(=O)(=O)c4cccs4)cc3C(=O)N([C@@H](C)CO)C[C@@H]2C)cc1 | inactive | inactive | inactive
C[C@H]1CN([C@@H](C)CO)C(=O)c2cc(NC(=O)CCN3CCOCC3)ccc2O[C@H]1CN(C)S(=O)(=O)c1ccccc1 | inactive | inactive | inactive
